# According to paper PMC12820563, “FoxP3 forms a head-to-head dimer in vivo and stabilizes its multimerization on adjacent microsatellites”:
# Some of the results follow.
# Target: T1, MBP-FoxP1dN (Mus musculus, UniProt P58462 326-579)
# T1 sequence: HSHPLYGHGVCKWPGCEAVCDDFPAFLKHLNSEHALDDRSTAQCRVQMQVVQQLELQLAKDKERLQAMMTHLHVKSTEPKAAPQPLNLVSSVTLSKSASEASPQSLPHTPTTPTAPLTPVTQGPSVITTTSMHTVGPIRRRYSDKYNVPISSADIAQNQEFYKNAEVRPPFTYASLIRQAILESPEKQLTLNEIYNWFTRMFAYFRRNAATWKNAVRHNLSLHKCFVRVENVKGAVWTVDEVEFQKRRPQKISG
# Test: PD-seq (MBP pull-down with sequencing); 20 mM Tris-HCl pH 7.5, 100 mM NaCl, 1.5 mM MgCl2, 0.4 uM protein, 0.1 uM dsDNA library, 30 min, room temperature, amylose pull-down; high values mean tight binding
# Settings: protein: recombinant; tags: His6-MBP; chain copies: 2; dsDNA, one strand shown
# How it was run: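 E. coli-expressed mouse FoxP3 or FoxP1 fragment, N-terminus removed and tagged with His6-MBP, was used at 0.4 µM against 0.1 µM of a Klenow-filled degenerate double-stranded DNA library. After 30 min at room temperature in Tris pH 7.5 buffer with NaCl and MgCl2, complexes were pulled down on amylose resin and washed three times. Binding is pull-down over input reads-per-million enrichment from pooled replicates of the proteinase K-released, PCR-barcoded, Illumina-sequenced DNA.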
row,Sequence,binding signal
1,GATGATTGTTCTCCCAGCTGATGAATTCTTATAATCGAGTAAACAAATTTTCCTAATCTTTCTGTTCAAGCGCCATCTAC,1.2 RPM ratio (pull-down/input)
2,GATGATTGTTCTCCCAGCTGATGAATTGAAATGCTCGAGTAAACAAATTTTCCTAATCTTTCTGTTCAAGCGCCATCTAC,1.07 RPM ratio (pull-down/input)
3,GATGATTGTTCTCCCAGCTGATGAATTGCGCTGATCGAGTAAACAAATTTTCCTAATCTTTCTGTTCAAGCGCCATCTAC,1.12 RPM ratio (pull-down/input)
4,GATGATTGTTCTCCCAGCTGATGAATTGTATCTCTCGAGTAAACAAATTTTCCTAATCTTTCTGTTCAAGCGCCATCTAC,1.2 RPM ratio (pull-down/input)
5,GATGATTGTTCTCCCAGCTGATGAATTCCACTGGTCGAGTAAACAAATTTTCCTAATCTTTCTGTTCAAGCGCCATCTAC,0.752 RPM ratio (pull-down/input)
6,GATGATTGTTCTCCCAGCTGATGAATTCCTTGGCTCGAGTAAACAAATTTTCCTAATCTTTCTGTTCAAGCGCCATCTAC,0.766 RPM ratio (pull-down/input)
7,GATGATTGTTCTCCCAGCTGATGAATTCCAGCTATCGAGTAAACAAATTTTCCTAATCTTTCTGTTCAAGCGCCATCTAC,0.883 RPM ratio (pull-down/input)
8,GATGATTGTTCTCCCAGCTGATGAATTCTCTTTTTCGAGTAAACAAATTTTCCTAATCTTTCTGTTCAAGCGCCATCTAC,0.96 RPM ratio (pull-down/input)
9,GATGATTGTTCTCCCAGCTGATGAATTATCTCAGTCGAGTAAACAAATTTTCCTAATCTTTCTGTTCAAGCGCCATCTAC,0.957 RPM ratio (pull-down/input)
10,GATGATTGTTCTCCCAGCTGATGAATTATAAAGATCGAGTAAACAAATTTTCCTAATCTTTCTGTTCAAGCGCCATCTAC,1.08 RPM ratio (pull-down/input)
11,GATGATTGTTCTCCCAGCTGATGAATTTTCCACCTCGAGTAAACAAATTTTCCTAATCTTTCTGTTCAAGCGCCATCTAC,0.878 RPM ratio (pull-down/input)
12,GATGATTGTTCTCCCAGCTGATGAATTCCATCTCTCGAGTAAACAAATTTTCCTAATCTTTCTGTTCAAGCGCCATCTAC,0.851 RPM ratio (pull-down/input)
13,GATGATTGTTCTCCCAGCTGATGAATTCCATATGTCGAGTAAACAAATTTTCCTAATCTTTCTGTTCAAGCGCCATCTAC,0.896 RPM ratio (pull-down/input)
14,GATGATTGTTCTCCCAGCTGATGAATTCTCAAGATCGAGTAAACAAATTTTCCTAATCTTTCTGTTCAAGCGCCATCTAC,0.801 RPM ratio (pull-down/input)
15,GATGATTGTTCTCCCAGCTGATGAATTGCCAGACTCGAGTAAACAAATTTTCCTAATCTTTCTGTTCAAGCGCCATCTAC,0.901 RPM ratio (pull-down/input)
16,GATGATTGTTCTCCCAGCTGATGAATTCAGCCCTTCGAGTAAACAAATTTTCCTAATCTTTCTGTTCAAGCGCCATCTAC,0.851 RPM ratio (pull-down/input)
17,GATGATTGTTCTCCCAGCTGATGAATTGCATGGATCGAGTAAACAAATTTTCCTAATCTTTCTGTTCAAGCGCCATCTAC,1.03 RPM ratio (pull-down/input)
18,GATGATTGTTCTCCCAGCTGATGAATTGTATTGCTCGAGTAAACAAATTTTCCTAATCTTTCTGTTCAAGCGCCATCTAC,1.3 RPM ratio (pull-down/input)
19,GATGATTGTTCTCCCAGCTGATGAATTCTAAAAGTCGAGTAAACAAATTTTCCTAATCTTTCTGTTCAAGCGCCATCTAC,0.824 RPM ratio (pull-down/input)
20,GATGATTGTTCTCCCAGCTGATGAATTAGCGATTTCGAGTAAACAAATTTTCCTAATCTTTCTGTTCAAGCGCCATCTAC,1.01 RPM ratio (pull-down/input)
21,GATGATTGTTCTCCCAGCTGATGAATTGCGCGCGTCGAGTAAACAAATTTTCCTAATCTTTCTGTTCAAGCGCCATCTAC,1.17 RPM ratio (pull-down/input)

row,Sequence,binding signal
1,GATGATTGTTCTCCCAGCTGATGAATTTGCTCCCTCGAGTAAACAAATTTTCCTAATCTTTCTGTTCAAGCGCCATCTAC,0.995 RPM ratio (pull-down/input)
2,GATGATTGTTCTCCCAGCTGATGAATTGTCTCCTTCGAGTAAACAAATTTTCCTAATCTTTCTGTTCAAGCGCCATCTAC,1.08 RPM ratio (pull-down/input)
3,GATGATTGTTCTCCCAGCTGATGAATTTTCAGCGTCGAGTAAACAAATTTTCCTAATCTTTCTGTTCAAGCGCCATCTAC,0.878 RPM ratio (pull-down/input)
4,GATGATTGTTCTCCCAGCTGATGAATTCATGCTGTCGAGTAAACAAATTTTCCTAATCTTTCTGTTCAAGCGCCATCTAC,1.07 RPM ratio (pull-down/input)
5,GATGATTGTTCTCCCAGCTGATGAATTGGCGTTGTCGAGTAAACAAATTTTCCTAATCTTTCTGTTCAAGCGCCATCTAC,1.01 RPM ratio (pull-down/input)
6,GATGATTGTTCTCCCAGCTGATGAATTTGGGTTATCGAGTAAACAAATTTTCCTAATCTTTCTGTTCAAGCGCCATCTAC,0.936 RPM ratio (pull-down/input)
7,GATGATTGTTCTCCCAGCTGATGAATTACAGGGTTCGAGTAAACAAATTTTCCTAATCTTTCTGTTCAAGCGCCATCTAC,0.977 RPM ratio (pull-down/input)
8,GATGATTGTTCTCCCAGCTGATGAATTAGGAATGTCGAGTAAACAAATTTTCCTAATCTTTCTGTTCAAGCGCCATCTAC,0.887 RPM ratio (pull-down/input)
9,GATGATTGTTCTCCCAGCTGATGAATTGTGGTTCTCGAGTAAACAAATTTTCCTAATCTTTCTGTTCAAGCGCCATCTAC,1.06 RPM ratio (pull-down/input)
10,GATGATTGTTCTCCCAGCTGATGAATTAGATAAGTCGAGTAAACAAATTTTCCTAATCTTTCTGTTCAAGCGCCATCTAC,0.925 RPM ratio (pull-down/input)
11,GATGATTGTTCTCCCAGCTGATGAATTGGAGTGGTCGAGTAAACAAATTTTCCTAATCTTTCTGTTCAAGCGCCATCTAC,0.855 RPM ratio (pull-down/input)
12,GATGATTGTTCTCCCAGCTGATGAATTAGAAATGTCGAGTAAACAAATTTTCCTAATCTTTCTGTTCAAGCGCCATCTAC,0.923 RPM ratio (pull-down/input)
13,GATGATTGTTCTCCCAGCTGATGAATTTGACCACTCGAGTAAACAAATTTTCCTAATCTTTCTGTTCAAGCGCCATCTAC,0.853 RPM ratio (pull-down/input)
14,GATGATTGTTCTCCCAGCTGATGAATTAGCTTATTCGAGTAAACAAATTTTCCTAATCTTTCTGTTCAAGCGCCATCTAC,0.963 RPM ratio (pull-down/input)
15,GATGATTGTTCTCCCAGCTGATGAATTAGGATTCTCGAGTAAACAAATTTTCCTAATCTTTCTGTTCAAGCGCCATCTAC,0.864 RPM ratio (pull-down/input)
16,GATGATTGTTCTCCCAGCTGATGAATTGGTAATGTCGAGTAAACAAATTTTCCTAATCTTTCTGTTCAAGCGCCATCTAC,1.11 RPM ratio (pull-down/input)
17,GATGATTGTTCTCCCAGCTGATGAATTAGGGCAATCGAGTAAACAAATTTTCCTAATCTTTCTGTTCAAGCGCCATCTAC,1.09 RPM ratio (pull-down/input)
18,GATGATTGTTCTCCCAGCTGATGAATTTGCCTAATCGAGTAAACAAATTTTCCTAATCTTTCTGTTCAAGCGCCATCTAC,1.06 RPM ratio (pull-down/input)
19,GATGATTGTTCTCCCAGCTGATGAATTCATGGGCTCGAGTAAACAAATTTTCCTAATCTTTCTGTTCAAGCGCCATCTAC,0.786 RPM ratio (pull-down/input)
20,GATGATTGTTCTCCCAGCTGATGAATTAGTGTTGTCGAGTAAACAAATTTTCCTAATCTTTCTGTTCAAGCGCCATCTAC,2.53 RPM ratio (pull-down/input)
21,GATGATTGTTCTCCCAGCTGATGAATTACTTCGGTCGAGTAAACAAATTTTCCTAATCTTTCTGTTCAAGCGCCATCTAC,0.92 RPM ratio (pull-down/input)

row,Sequence,binding signal
1,GATGATTGTTCTCCCAGCTGATGAATTACGGTTCTCGAGTAAACAAATTTTCCTAATCTTTCTGTTCAAGCGCCATCTAC,0.967 RPM ratio (pull-down/input)
2,GATGATTGTTCTCCCAGCTGATGAATTCGGAGCCTCGAGTAAACAAATTTTCCTAATCTTTCTGTTCAAGCGCCATCTAC,0.794 RPM ratio (pull-down/input)
3,GATGATTGTTCTCCCAGCTGATGAATTCGTTGTATCGAGTAAACAAATTTTCCTAATCTTTCTGTTCAAGCGCCATCTAC,1.3 RPM ratio (pull-down/input)
4,GATGATTGTTCTCCCAGCTGATGAATTACAGTAATCGAGTAAACAAATTTTCCTAATCTTTCTGTTCAAGCGCCATCTAC,1.62 RPM ratio (pull-down/input)
5,GATGATTGTTCTCCCAGCTGATGAATTTCGCATATCGAGTAAACAAATTTTCCTAATCTTTCTGTTCAAGCGCCATCTAC,0.995 RPM ratio (pull-down/input)
6,GATGATTGTTCTCCCAGCTGATGAATTCGCCCATTCGAGTAAACAAATTTTCCTAATCTTTCTGTTCAAGCGCCATCTAC,0.823 RPM ratio (pull-down/input)
7,GATGATTGTTCTCCCAGCTGATGAATTGGGGCGTTCGAGTAAACAAATTTTCCTAATCTTTCTGTTCAAGCGCCATCTAC,0.91 RPM ratio (pull-down/input)
8,GATGATTGTTCTCCCAGCTGATGAATTCCACCTGTCGAGTAAACAAATTTTCCTAATCTTTCTGTTCAAGCGCCATCTAC,0.729 RPM ratio (pull-down/input)
9,GATGATTGTTCTCCCAGCTGATGAATTAGCTGTTTCGAGTAAACAAATTTTCCTAATCTTTCTGTTCAAGCGCCATCTAC,1.12 RPM ratio (pull-down/input)
10,GATGATTGTTCTCCCAGCTGATGAATTTAGAAAGTCGAGTAAACAAATTTTCCTAATCTTTCTGTTCAAGCGCCATCTAC,1.04 RPM ratio (pull-down/input)
11,GATGATTGTTCTCCCAGCTGATGAATTGACGTCGTCGAGTAAACAAATTTTCCTAATCTTTCTGTTCAAGCGCCATCTAC,1.06 RPM ratio (pull-down/input)
12,GATGATTGTTCTCCCAGCTGATGAATTTCGTCGATCGAGTAAACAAATTTTCCTAATCTTTCTGTTCAAGCGCCATCTAC,0.9 RPM ratio (pull-down/input)
13,GATGATTGTTCTCCCAGCTGATGAATTAGCACGTTCGAGTAAACAAATTTTCCTAATCTTTCTGTTCAAGCGCCATCTAC,0.933 RPM ratio (pull-down/input)
14,GATGATTGTTCTCCCAGCTGATGAATTCATCAAATCGAGTAAACAAATTTTCCTAATCTTTCTGTTCAAGCGCCATCTAC,1.04 RPM ratio (pull-down/input)
15,GATGATTGTTCTCCCAGCTGATGAATTCTCGACTTCGAGTAAACAAATTTTCCTAATCTTTCTGTTCAAGCGCCATCTAC,0.861 RPM ratio (pull-down/input)
16,GATGATTGTTCTCCCAGCTGATGAATTCCATTCTTCGAGTAAACAAATTTTCCTAATCTTTCTGTTCAAGCGCCATCTAC,0.848 RPM ratio (pull-down/input)
17,GATGATTGTTCTCCCAGCTGATGAATTGTACTTCTCGAGTAAACAAATTTTCCTAATCTTTCTGTTCAAGCGCCATCTAC,0.894 RPM ratio (pull-down/input)
18,GATGATTGTTCTCCCAGCTGATGAATTCAACGCATCGAGTAAACAAATTTTCCTAATCTTTCTGTTCAAGCGCCATCTAC,1.16 RPM ratio (pull-down/input)
19,GATGATTGTTCTCCCAGCTGATGAATTCGAGCCCTCGAGTAAACAAATTTTCCTAATCTTTCTGTTCAAGCGCCATCTAC,0.714 RPM ratio (pull-down/input)
20,GATGATTGTTCTCCCAGCTGATGAATTTCCGATCTCGAGTAAACAAATTTTCCTAATCTTTCTGTTCAAGCGCCATCTAC,0.802 RPM ratio (pull-down/input)
21,GATGATTGTTCTCCCAGCTGATGAATTGTCTATCTCGAGTAAACAAATTTTCCTAATCTTTCTGTTCAAGCGCCATCTAC,1.04 RPM ratio (pull-down/input)
